Source: PubChem BioAssay AID686979 (National Center for Advancing Translational Sciences (NCATS), 2013)
Hit rate of the full screen: of about 420,000 compounds, about 50,000 (12%) were called active. The inconclusive results got no clear call from the source; some entries with a clear call stand among them for comparison. Calls come from the whole dose curve; as a rule, active = well fitted inhibition curve with a large enough effect; inconclusive = small, poorly fitted or top-dose-only effect; inactive = flat fitted curve, though single readings scatter. No potency is given beside an inconclusive call; the fits are too rough.

Experiment: qHTS for Inhibitors of human tyrosyl-DNA phosphodiesterase 1 (TDP1): qHTS in cells in presence of CPT; note: nearly all actives have a fitted effect of over 55% in size
Details: chicken DT40 Tdp1-/-;hTDP1 cells + 20 nM CPT, ATP luminescence, 48 h; activity change, negative = growth inhibition: at 46.2 µM (top of the series) unless noted
Method in brief: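 Cell growth measured by CellTiter-Glo luminescence after a minimum 48 h, 37 C compound exposure with 20 nM CPT in Tdp1-knockout DT40 cells stably expressing hTDP1, seeded 400/well; qHTS titration format.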
% is set by controls: 0 for no effect and ±100 for the full control effect; potency is the fitted concentration of half-maximal effect; tags give direction and shape of the fitted curve.

| SMILES | Potency | activity change, negative = growth inhibition |
| --- | --- | --- |
| O=C(COC(=O)c1cccc(S(=O)(=O)N2CCCC2)c1)Nc1cccc(Br)c1 | inactive |  |
| Cc1ccc(CN2CCN(Cc3ccccc3-c3ccco3)CC2CCO)o1 (centres undefined) | inconclusive [inhibitor, single point] |  |
| CCOc1ccc(N(CC)C(=O)c2cc3c(s2)-c2ccc(Cl)cc2SC3)cc1 | active: 11.6 µM |  |
| CCCOc1ccc(C(=O)Nc2cc(-c3nn4c(C)nnc4s3)ccc2C)cc1 | inconclusive [inhibitor, single point] |  |
| Cc1nc(C(=O)N2CCCC(N3CCN(c4ccccc4C)CC3)C2)cs1 (centres undefined) | active: 14.6 µM |  |
| NC(=O)CN1CCN(CCN2C(=O)c3cccc4cccc(c34)C2=O)CC1 | inactive |  |
| Cc1ccc(C(=O)NCCSc2c[nH]c3ccccc23)cc1C | inconclusive [inhibitor, single point] |  |
| Cc1ccn2c(Nc3ccc4c(c3)OCO4)c(-c3ccc(C)o3)nc2c1 | active: 14.6 µM |  |
| COc1cc(OC)c(CN2CCC(Cc3ccccc3)CC2)cc1Br | inconclusive [inhibitor, partial curve, poor fit] |  |
| COc1ccc(NC2=C(C(C)=O)C(c3ccc4c(c3)OCO4)C(C(C)=O)C(C)(O)C2)cc1 (centres undefined) | inconclusive [inhibitor, single point] |  |
| O=C(c1cn(-c2ccccc2)nc1-c1cccnc1)N1CCCC(C(F)(F)F)C1 (centres undefined) | inactive |  |
| CCN1CCN(CC(=O)Nc2sc3c(c2C#N)CCC(C)C3)CC1 (centres undefined) | inconclusive [inhibitor, single point] |  |
| CCN(C(=O)Cn1cc(C(C)=O)c2ccccc21)c1ccccc1 | inconclusive [inhibitor, single point] |  |
| COc1ccc(CCNC(=O)C2CCN(Cc3nc(-c4cccc(Cl)c4)oc3C)CC2)cc1OC | active: 18.4 µM |  |
| Cc1nnnn1/C(=C\c1ccccc1)C(=O)OCC(=O)NC1CCCCC1 | active: 13 µM |  |
| COc1ccc(CNC(=O)CN2C(=O)NC(C)(c3cccc(Br)c3)C2=O)cc1 (centres undefined) | inactive |  |
| COc1ccc(NC(=O)C2(S(=O)(=O)c3ccc(C)cc3)CC2)c(OC)c1 | inactive |  |
| Cc1ccc(C(CC(=O)N2CCOCC2)c2ccco2)cc1 (centres undefined) | active: 16.4 µM |  |
| CCOC(=O)C1CCCCN1Cc1ccccc1C(F)(F)F (centres undefined) | inconclusive [inhibitor, single point] |  |
| CC1=CC2=C(C=O)C(=O)C(C)(O)C(O)C2=CO1 (centres undefined) | inconclusive [inhibitor, single point] |  |
| COc1ccc(C(=O)c2cc([N+](=O)[O-])ccc2N2CCCC2)cc1 | active: 3.26 µM |  |
| O=C(Nc1cc(Cl)ccc1O)c1snnc1-c1ccccc1 | active: 13 µM |  |
| COc1cc(Cl)ccc1OCc1cc(C(=O)N2C[C@]3(C)C[C@H]2CC(C)(C)C3)no1 | inconclusive [inhibitor, single point] |  |
| COc1ccc(CCNC(=O)C(=O)NCC2CCCN2S(=O)(=O)c2ccccc2)cc1OC (centres undefined) | inconclusive [inhibitor, single point] |  |
| O=C(NCc1ccc(F)cc1)c1c2c(nc3ccccc13)CCC2 |  | inconclusive: -31.8% [inhibitor] |

| SMILES | Potency | activity change, negative = growth inhibition |
| --- | --- | --- |
| Cc1ccc(CNS(=O)(=O)c2ccc3c(c2)OCCO3)cc1 | inconclusive [inhibitor, single point] |  |
| CCOC(=O)N1CC(C)N(CC(O)CN2CCOCC2)CC1C (centres undefined) | inactive |  |
| O=C(COC(=O)c1ccc(O)cc1)Nc1cccc(S(=O)(=O)N2CCCCC2)c1 | inconclusive [inhibitor, partial curve] |  |
| CSCCC(c1nc2ccccc2[nH]1)n1c(C)nc2ccccc21 (centres undefined) | inactive |  |
| Cc1ccc2cccc(Oc3cnccn3)c2n1 | inactive |  |
| Cc1nc(NC(=O)c2ccc(Cl)cc2)sc1Cc1ccc2c(c1)OCO2 | active: 4.11 µM |  |
| CCCN(CCC)C(=O)Cn1c(=O)n(-c2ccc(CC)cc2)c(=O)c2c3c(sc21)CCC3 | inconclusive [inhibitor, single point] |  |
| O=C(CCCCCNC(=O)N1CCn2c1nc1ccccc12)NCCc1ccccc1 | inconclusive [inhibitor, single point] |  |
| Cc1nnc(NN2CCOCC2)[nH]c1=O | inactive |  |
| COc1ccc(-c2c(C)c3ccc(O)c(CN4CCCCC4C)c3oc2=O)cc1OC (centres undefined) | inconclusive [inhibitor, single point] |  |
| N#CCc1nc(-c2cc3ccccc3oc2=O)cs1 | inconclusive [inhibitor, partial curve] |  |
| CC(NC(=S)Nc1ccc(OC(F)F)c(Cl)c1)C(C)(C)C (centres undefined) | inconclusive [inhibitor, single point] |  |
| CCN(CC)S(=O)(=O)c1cccc(C(=O)Nc2cccnc2)c1 | inconclusive [inhibitor, single point] |  |
| CC(C)CC1C(=O)N(Cc2cn(CC3CCCCC3)nn2)CCS(=O)(=O)N1Cc1ccc(-c2ccc(Cl)cc2)cc1 (centres undefined) | inconclusive [inhibitor, partial curve, poor fit] |  |
| CCOc1ccc(NC(c2ccc(Cl)cc2)c2nnc(-c3cccc(F)c3)o2)cc1 (centres undefined) | inconclusive [inhibitor, partial curve] |  |
| Cc1ccc(CN(C(=O)COc2cccc(Cl)c2)c2ccccn2)o1 | inconclusive [inhibitor, partial curve] |  |
| CC1(C)NS(=O)(=O)Oc2ccccc21 | inactive |  |
| COc1ccc(OC)c(Cc2nnc(CCC(=O)NC3CCCCCCC3)o2)c1 | inconclusive [inhibitor, single point] |  |
| CCSc1ncc(Cl)c(C(=O)Nc2ccc(S(=O)(=O)N3CCCCC3CC)cc2)n1 (centres undefined) | active: 10.3 µM |  |
| COc1ccc(NS(=O)(=O)c2cccc3cccnc23)cc1OC | inconclusive [inhibitor, single point] |  |
| COc1ccc(-c2nnc(-c3ccc4ccccc4c3)o2)cc1 | inactive |  |
| Cc1cccc(S(=O)Cc2ccc(C(=O)N3CCN(C(=O)c4ccco4)CC3)o2)c1 (centres undefined) | inactive |  |
| Cc1cccc(-n2ncc3c(NCc4ccccn4)ncnc32)c1 | inconclusive [inhibitor, single point] |  |
| CC12CCC(=O)C=C1C(O)CC1C2CCC2(C)C1CCC2(O)C(=O)CO (centres undefined) | inconclusive [inhibitor, single point] |  |
| CC(=O)CSc1ccc(C(=O)O)cn1 | inactive |  |

| SMILES | Potency | activity change, negative = growth inhibition |
| --- | --- | --- |
| CCOc1ccccc1NC(=O)CSc1ccc([N+](=O)[O-])cc1 | inactive |  |
| Cc1cccc(C)c1NC(=O)NC1(C(=O)N2CCCC2)CCCCC1 | inactive |  |
| COc1ccc(OC)c(CN2C[C@H](Sc3ccc(F)cc3)C[C@H]2C(=O)N(C)C)c1 | inconclusive [inhibitor, single point] |  |
| CCOc1ccc(NC(=O)CCN2C(=O)C3CCCCC3C2=O)cc1OCC (centres undefined) |  | inconclusive: -35.1% [inhibitor] |
| COCCNC(=O)[C@H](CSCc1ccccc1)N1Cc2ccccc2C1=O | inconclusive [inhibitor, single point] |  |
| C/C(=N\NC(=O)c1cc2ccccc2cc1O)c1ccccn1 | active: 1.16 µM |  |
| CCCOc1ccccc1C(=O)N1CCCCC1CCN1CCCCC1 (centres undefined) | inactive |  |
| Nc1c(S(=O)(=O)c2ccccc2)c2nc3ccccc3nc2n1/N=C/c1cccc(O)c1 | active: 14.6 µM |  |
| C[C@H](CO)N1C[C@H](C)[C@@H](CN(C)Cc2ccc(Cl)c(Cl)c2)OCCCC[C@H](C)Oc2ccc(NC(=O)CCC(F)(F)F)cc2C1=O | active: 23.1 µM |  |
| C[C@@H]1CN(Cc2ccc3c(c2)CN(Cc2cn[nH]c2-c2ccccc2)CCO3)C[C@H](C)O1 |  | inactive: 4.03% [at 9.04 µM] |
| Cn1nc(C(=O)NCCc2ccc(S(N)(=O)=O)cc2)c2ccccc2c1=O | inactive |  |
| O=C(CCS(=O)(=O)c1ccc2c(c1)NC(=O)CS2)NCCc1ccc(Cl)cc1 | inconclusive [inhibitor, single point] |  |
| CCCCNC(=O)CSc1nc(-c2ccc(OC)cc2)cc(C(F)(F)F)n1 | inconclusive [inhibitor, partial curve] |  |
| CN1CC(=O)N2[C@H](c3ccc4c(c3)OCO4)c3[nH]c4ccccc4c3C[C@@H]2C1=O | inactive |  |
| CCc1ccc(-n2nc(C)c3c(C(=O)Nc4ccc(Cl)cc4)cc(C)nc32)cc1 | inconclusive [inhibitor, single point] |  |
| CCC(=O)N1c2ccccc2CC1C(=O)NCCc1ccccc1OC (centres undefined) | inconclusive [inhibitor, single point] |  |
| COC(=O)c1ccc(C(=O)OC)c(NC(=O)CSc2cccc[n+]2[O-])c1 | active: 0.92 µM |  |
| C1=Cc2ccccc2/C1=C\c1cc[cH-]c1.[Fe+2].c1cc[cH-]c1 | active: 11.2 µM |  |
| Cc1nn(C)cc1/C=N\NC(=O)c1csc2c1CCCC2 | inconclusive [inhibitor, single point] |  |
| CCn1cc(/C=N/N=C2\CCC3C4CCc5cc(O)ccc5C4CC[C@]23C)c(C)n1 (some centres undefined) | active: 16.4 µM |  |
| COC(=O)Cn1cnc2c(cnn2-c2ccc(C)cc2)c1=O | inactive |  |
| Cc1cc(=O)c2ccccc2n1Cc1ccccc1 | inconclusive [inhibitor, partial curve, poor fit] |  |
| [N-]=[N+]=NC(c1ccccc1)C(NC(=O)c1cc(C(F)(F)F)cc(C(F)(F)F)c1)c1ccccc1 (centres undefined) | inconclusive [inhibitor, single point] |  |
| CNc1cncc(-c2ccc(OC)cc2)n1 | inactive |  |
